The other results are listed elsewhere or left out. The list includes weakly bound sequences.
target: MaxL homodimer (UniProt P61244); experiment: universal protein-binding microarray (PBM); details: PBS-based mixture, 10 nM His-tagged protein dimer, 2% milk, 200 ng/uL BSA, 50 ng/uL salmon testes DNA, 0.02% TX-100; detection with Alexa 488 anti-His …; high values mean tight binding; most listed sequences are background and not binding sites; double strand, one strand shown
Chain of UniProt P61244 (P61244 whole entry): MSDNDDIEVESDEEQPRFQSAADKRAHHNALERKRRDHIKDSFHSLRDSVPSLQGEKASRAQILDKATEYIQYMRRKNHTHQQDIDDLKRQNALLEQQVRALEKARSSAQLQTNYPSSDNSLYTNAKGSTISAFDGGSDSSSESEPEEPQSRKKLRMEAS

Sequence	binding signal (normalized occupancy)
ACATTACC	0.0868
CAGTGACC	0.0802
AACTCTAC	0.0729
TCTCAAGA	0.0757
CATCAGTC	0.0762
CGTAACAA	0.0751
CATCCCAA	0.0789
GTTAAAGA	0.0776
CAAGTTTA	0.0742
CACAGCCG	0.0698
CTTCCGGA	0.0629
ATATCGTC	0.0819
GTCGATTA	0.0759
CGGTGCCA	0.0723
CGAGTAAA	0.0759
AAACCCTT	0.0745
ATGTGACA	0.0901
ACGCCCAC	0.0879
CATAAGGC	0.0829
CCAGTCAG	0.0724
AAGTCGTA	0.0752
CACCTGCA	0.0843
GGATAAGA	0.0785
AGTGCAGG	0.0726
GGGAGCAA	0.0719

Sequence	binding signal (normalized occupancy)
ACAGAAAA	0.0727
GCCTCCTA	0.0722
CCCAATAG	0.0758
CCAGCGAA	0.0664
CGAGGCTA	0.0772
AACATGGG	0.0935
AGTCCCAT	0.08
CGAAGAGA	0.071
AAGTACCA	0.08
AATCAGTA	0.0786
GAACTCTA	0.0729
AGGCCTAC	0.0722
ACTTTGAG	0.0717
ACTGCCTC	0.075
TAAAAGAA	0.0707
AACTAACT	0.0696
GAGTGACA	0.0792
GAACCAAC	0.0752
GGTGACTA	0.0779
CCAAGCCC	0.0739
CGAATCAA	0.0766
CCACAGAG	0.0712
GATTCAGC	0.0711
ATGTGTAA	0.0874
GGCAGTGA	0.0745

Sequence	binding signal (normalized occupancy)
CGCGTTAA	0.0766
CTAGGGTA	0.0774
CGGATTAG	0.0726
CTGGAATA	0.0747
ACGTACGG	0.0786
ATCACCCC	0.0843
GGCTAACA	0.0749
CCCTCTCG	0.07
AACCTCGA	0.0736
CTGGTAAG	0.0719
AGCATTCA	0.0761
CCGAGCGC	0.0635
TGCTCACA	0.0845
AACGCCCT	0.0713
CCGTTTAC	0.0717
CGAGGTAA	0.0755
AATCCTGT	0.0769
ACAACTGC	0.0673
TAGGTTCA	0.0728
ACCATGCT	0.123
CAATTTCG	0.0732
ATGCAAGA	0.0753
CCGTAGAC	0.0698
GCTACGCC	0.0731
GGTCTGTA	0.0752

Sequence	binding signal (normalized occupancy)
GTAGGTCA	0.0728
CCACAGGG	0.0708
GCCCATAA	0.0767
CAATGCGG	0.0873
ACTAATGA	0.0785
AGAGTTAC	0.076
CCTCGGTA	0.067
TCCGACCA	0.0753
ATAGGGAG	0.0783
CTTCAACC	0.0737
ACGCTTTA	0.0766
CTCCTCGC	0.0739
ACTGAAAC	0.0742
CCAAGGCA	0.0725
TACTGCCA	0.0744
CATCTACC	0.0776
AACCTCTC	0.0764
CCCAGACG	0.0707
ATGTAGTC	0.0848
GATAGGGA	0.0753
AGTGACGG	0.0686
GCGGGGCA	0.0727
GCACCTCA	0.078
AGCGAGCT	0.0711
AAGGTTCC	0.0697

Sequence	binding signal (normalized occupancy)
CTTAGCAA	0.0727
ATACAGAG	0.0772
TATCGAAA	0.0728
GAATCATA	0.0847
ATGCACCC	0.0839
ACTACAGA	0.0771
CCATGTAG	0.0836
AAATATCG	0.0743
ATCAGGCA	0.0754
GAATCGAA	0.0761
CTGTGACC	0.0734
AGACTTTG	0.0675
CACAGCAA	0.0762
CGTGGGTC	0.085
ACAGATCC	0.0755
AGGACCAT	0.0823
CTATAACA	0.0846
ACGCAGCT	0.0702
CGGGTAGC	0.071
GGCAGAAC	0.0729
CAAGCCGC	0.0704
CTGCCTCA	0.0739
CGCGATAC	0.0814
ATGCATTA	0.0869
AAGGGTAT	0.0811

Sequence	binding signal (normalized occupancy)
AGCACTCA	0.0784
TCATGACA	0.0841
GGCGAAAA	0.0711
GATAGTAA	0.0764
GATCATAA	0.0852
AATATTGA	0.0777
CCCGATGC	0.0722
GCAACCCC	0.0708
AACGTCCT	0.0751
ACCGCACA	0.084
AAACTGAG	0.0651
ACTGTTCA	0.073
ATGCGGTG	0.0807
ATGACTTC	0.0712
CCGAAACC	0.078
AAAGAGGG	0.0738
ATCATCCC	0.0817
CCAGATCA	0.0815
CCGTACTA	0.0713
AGTTTCGA	0.0707
CAGGCATG	0.0964
CCTGGGTC	0.0709
AGGTCGTA	0.0767
CGCCGGTA	0.0675
CTGCGACC	0.0739

Sequence	binding signal (normalized occupancy)
ACACGGCT	0.0732
AACCATAT	0.0848
GCCAATGA	0.0735
ATCCTCTC	0.0703
AACCACCA	0.0807
ATTAGAGG	0.0752
CACAGCTA	0.0757
ACCGTCGT	0.0791
CATGCTAG	0.106
CTCCCGAC	0.0715
TAACCAGA	0.0757
GCTCCGTA	0.0695
ACCGGCTG	0.0679
AGAACCCA	0.0723
CCCAAGCA	0.0813
GGCGTACA	0.0747
CACCGAGA	0.0776
AGGCTTTG	0.0697
GCTTTGAC	0.0732
TATTGGAA	0.0758
AAGAACCG	0.0698
AAATGTGA	0.0885
GTGTTAAC	0.0783
AGTTATCG	0.0696
CGCACCGC	0.0721

Sequence	binding signal (normalized occupancy)
CGAGCCCC	0.0725
GGAAACTA	0.0719
AATGGTAC	0.0764
AGCGTATA	0.0804
CAATAGGG	0.0742
GCGAAGAA	0.0702
TAGTAGGA	0.0757
AACCGTAT	0.075
ATAAGCCG	0.0733
CGCCTGAA	0.0718
ACGGTACG	0.0734
ACGTTCGG	0.0768
ACTCAGAT	0.0759
ACCGCTAT	0.0744
AATGATAG	0.0801
AAAGGAAC	0.0731
CAAAAAGG	0.0699
CAACACAA	0.0772
ACGGAGCC	0.0668
CAGGCACC	0.0774
GTGTTCGA	0.0742
CGAAGATC	0.0766
GCGTTTCC	0.0788
AGAAAATC	0.077
AACCCTCC	0.0761

Sequence	binding signal (normalized occupancy)
TACGCTGA	0.0736
GCCCGCAC	0.0736
GAATTCAC	0.0741
AACACTTA	0.0802
AAACCCAC	0.0824
AGTAGGCA	0.0718
CAATGATA	0.0804
CACACATG	0.136
AGAAGAGA	0.073
GGAATAGA	0.0805
CAATAGCC	0.0739
ACAGGTAA	0.0728
CGCCGAGA	0.0686
CTGAGAAG	0.0685
AAGATCAG	0.0746
AATAAACG	0.0766
AGGATCAA	0.0762
CGACTTCC	0.0713
TCACCACA	0.0793
CAAGCGAG	0.0757
CATAGGGC	0.0795
ATATGGTA	0.0884
CAGGCAAG	0.0736
ATTCCGGA	0.0756
GTAGCAAC	0.0821

Sequence	binding signal (normalized occupancy)
AGTCATAA	0.0784
AGGCCTTA	0.0724
AGTGTGGG	0.0827
CAGAGTCA	0.0704
CACAACGC	0.0792
TCCGTGAA	0.0753
AACAAGTG	0.0775
AAAGTATC	0.0742
GCCCAAAA	0.0679
CCTGATGC	0.0825
ACGCGGGG	0.0786
ACTCATGG	0.0945
AGCGTGGA	0.106
GTTTAATA	0.0809
ACTTGGCC	0.0668
AGTAGTTC	0.0718
ACGTAGAG	0.0814
AAGCATAC	0.0751
ACCACCCA	0.0821
AATCGGTC	0.0693
CTCATGGC	0.0965
GACCACAA	0.0763
TCTCCTAA	0.0749
AGACCTGC	0.0709
GGTGACAC	0.0824

Sequence	binding signal (normalized occupancy)
ACAATAAC	0.0762
GGTGGGTA	0.0949
GAATTCCC	0.0736
ATCGGGCA	0.0728
AGCGCTGA	0.0686
CCCATGAC	0.0853
ACGATGCA	0.0775
AAGTATGA	0.082
ATCAGTTA	0.0738
GGGGGTTA	0.0813
TAACCTTA	0.0726
CGGTAACG	0.0685
TGACGGAA	0.0786
CATTAGAA	0.0752
AACGTGCG	0.108
CGAAACAA	0.0702
AAATCGTC	0.0678
CGTGCTAG	0.0952
CCCGTATC	0.0739
AAAGGTCC	0.071
CATGAAAC	0.0762
GACTAGGA	0.0732
ACAAAGTG	0.0721
CATCTCCG	0.0747
CTCCCAGA	0.0739

Sequence	binding signal (normalized occupancy)
AACCTATA	0.0782
ACCTGTAG	0.0736
AATTGCCT	0.0718
AATTGGGC	0.0747
AGAGTTGA	0.0682
AAGGGTAA	0.0788
AAAACCTT	0.0713
AGTGCTGG	0.0689
AAAATTCT	0.0763
AGAAGCTG	0.0694
CGTTAAGA	0.0717
CTAAGAAA	0.0728
AAAAAAGG	0.0707
ATGCACTG	0.0781
ACTCTCTG	0.0705
GGCTTTTA	0.0758
TCAGTCGA	0.0692
ACGTACCT	0.0783
AGTTCCCG	0.074
ACCCTATA	0.0812
CCACTACA	0.0783
GGGTATAC	0.0791
GGCGCGCA	0.0732
ATGGCTGA	0.0827
ACAGCAGT	0.0689

Sequence	binding signal (normalized occupancy)
AAGTAGCA	0.0743
GCAGCATA	0.0824
ATGCACCA	0.0799
CGTAACCA	0.0757
GTCCGGGA	0.0696
ACACCAAT	0.0759
AAATTACG	0.0788
AAACATAT	0.0797
ACTCGGCT	0.065
CTGCGTCC	0.0696
AATCGTGG	0.0832
ACTTGCTG	0.0711
CTACTCTC	0.0754
CTCAGAGC	0.0747
AGAATACA	0.0787
ACTTAAGG	0.0739
ATCCACAG	0.078
CCACTCTC	0.075
GCGGTTAA	0.072
CTTTGACC	0.0868
TATGCACA	0.0883
CGCGCCCA	0.0739
GAGAGTAC	0.073
CCACCTCG	0.0794
GCCGCTAA	0.0662

Sequence	binding signal (normalized occupancy)
ACTTTAGG	0.073
AGCAGCCA	0.0738
AGGTGGCA	0.082
CACTTTGC	0.0696
CCAACTGC	0.0709
AGCCCGTG	0.0746
CAAGCATG	0.105
ACCACCTG	0.106
CATCCTGA	0.0746
GTCCGTGA	0.0756
ACTTACCA	0.0778
ACACAAAT	0.0826
AGTTTGAC	0.0699
CATAATTC	0.082
GCAAGTAC	0.0746
CGGATAAG	0.0773
ACACGCGG	0.143
AATCGGGG	0.0779
CCTGCAAG	0.0724
